Test results: the supplement of paper PMC3334620
Over roughly 33,000 sequences, “E-score (-0.5 to 0.5)” has its median near -0.054; the highest 2% begin near 0.39. The list shows a part of the results.

Molecular target: Ylr278c (UniProt Q05854)
Assay: PBM E-score (8-mer binding enrichment) (E-score (-0.5 to 0.5)); higher = stronger / more preferred TF binding; most listed sequences are background and not binding sites
Conditions: protein concentration: 200 nM; construct: GST-DNA-binding domain
In short: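 Masliner-normalised scans of fluorescent anti-GST signal were the basis for scoring. That signal came from GST-tagged yeast transcription factors applied at about 100-200 nM to double-stranded universal all-10-mer Agilent arrays on fresh or once-stripped slides. Each ungapped eight-base word, pooled with its reverse complement, received an E-score from the Universal PBM Analysis Suite.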

Row | Sequence | PBM E-score
1 | CGTAGCTA | -0.243
2 | AATAATCC | 0.149
3 | GTACCTAA | -0.288
4 | ACCCGCCC | 0.292
5 | AACTCTGG | -0.179
6 | ATTGCTGG | -0.141
7 | ACGTCTTG | -0.182
8 | TATCCACA | -0.144
9 | CTATGGAC | 0.0134
10 | AGTTTCCA | -0.0248
11 | GTTCCTCA | -0.0284
12 | AGCAATAG | -0.0696
13 | AACATACA | -0.105
14 | CGGCTTAA | 0.333
15 | ACCGTGCG | 0.00414
16 | GTAGGCAA | -0.233
17 | AGAGGCTA | -0.164
18 | ACGTCGTG | -0.0983
19 | CCCCACAG | -0.305
20 | GATCTACC | -0.0521
21 | CTTAGAAG | -0.185
22 | AACGACTT | -0.203
23 | AGCGTATG | -0.0606
24 | GACTCCTA | -0.191
25 | AGCATCGC | -0.0596

Row | Sequence | PBM E-score
26 | AAACGTTG | -0.188
27 | CCCGGGTA | 0.289
28 | CATTCTAC | -0.0539
29 | CAGTCATG | -0.129
30 | CAATACTA | -0.165
31 | GGGTAGGA | 0.036
32 | CTAAAGGA | -0.0918
33 | CCGAACGG | 0.313
34 | CTCCACAA | -0.0554
35 | GCCCAAAA | -0.0732
36 | ATTTTTTG | 0.0266
37 | AGTGGCAA | -0.0899
38 | ATAAGTCG | 0.0379
39 | AACCCTCC | 0.0776
40 | AACGTTGG | -0.187
41 | AGGAGACT | -0.176
42 | CACGCTCA | -0.00011
43 | CGTGCGCC | 0.143
44 | ATGTGCGA | -0.0711
45 | GCGGATAC | 0.237
46 | ATTGGTCC | 0.122
47 | CACCAAGA | -0.125
48 | ATGGCGGA | 0.319
49 | GAAATTTC | 0.0871
50 | AGGACCGC | 0.227

Row | Sequence | PBM E-score
51 | GAGTACTA | -0.0512
52 | AGCTATAG | -0.301
53 | CGACTACA | -0.144
54 | GGGGGTAC | 0.0141
55 | AGCAAAGA | -0.138
56 | CAGCTCGC | -0.157
57 | AGTTGAAT | -0.0111
58 | AAAGAGCT | -0.155
59 | TCCACCAA | -0.0779
60 | AATTTCTC | 0.121
61 | ATGGACTG | -0.179
62 | CTGAAAGC | 0.112
63 | GCAAGCGA | -0.0851
64 | CGACAACC | -0.0858
65 | AAGGGATA | -0.183
66 | AACCAAGA | -0.119
67 | ACAGTGCG | 0.0189
68 | GAGCGATA | -0.0698
69 | ACTCCTCG | 0.0271
70 | GCGCACAA | 0.0955
71 | AAGAATAT | -0.118
72 | CTAGTTGC | -0.0925
73 | AGTCGTTA | -0.168
74 | ACGGTGTA | 0.0979
75 | CGTCCCCC | -0.033

Row | Sequence | PBM E-score
76 | ATAATCGG | 0.289
77 | CCTTGTTA | -0.225
78 | ATACCATC | 0.0633
79 | ATCTGATG | -0.138
80 | GCGGAAAC | 0.271
81 | GTATCTAA | -0.0817
82 | AGGCAGTA | -0.361
83 | TAACGAAA | -0.0536
84 | GAACATAC | 0.0414
85 | ACAAAAAC | 0.117
86 | GGCAACAC | 0.0328
87 | TCCGTACA | 0.263
88 | GACTACAA | -0.177
89 | ACGAGCGA | -0.195
90 | ATCTCGAC | -0.0424
91 | CGCAGATA | -0.121
92 | GAATGGCA | 0.0716
93 | CAGGAGGA | -0.219
94 | GTCGAATA | -0.0877
95 | CATAATGG | -0.167
96 | AGACGGAG | 0.392
97 | ATACGCTA | -0.0321
98 | GATATGAA | -0.0301
99 | CACAGCGA | -0.0374
100 | CCGTTACC | 0.133

Row | Sequence | PBM E-score
101 | ATCTTAGA | -0.0134
102 | ATTATGTA | 0.0306
103 | CACTAATG | -0.0878
104 | ACCAGTCT | -0.193
105 | GTGACGCA | -0.128
106 | AAGTATAC | -0.146
107 | ACGTCTGG | -0.23
108 | ACTCCCCC | 0.0358
109 | ACTTGAAC | -0.0067
110 | CGTCTCTC | -0.00934
111 | ACCGGTTG | 0.221
112 | ACTCTTCA | -0.191
113 | AACTCTTG | -0.319
114 | AGTCTGGG | -0.32
115 | AACACGGC | 0.0459
116 | AGCAATGC | 0.072
117 | AGATGGGA | -0.055
118 | AGTCGATA | -0.186
119 | AGACAGAT | -0.0803
120 | ATAAGGCC | 0.0877
121 | ATTCCTAA | 0.0152
122 | CTCTGCAA | -0.0683
123 | TGTCATAA | -0.333
124 | GCGACTCC | 0.0827
125 | GATCAAAA | -0.0359

Row | Sequence | PBM E-score
126 | AAACGAAG | -0.055
127 | CGACGTTC | -0.0869
128 | GTGCGCCA | -0.0886
129 | GTAAAAAA | 0.0208
130 | TGGCTAAA | -0.0681
131 | AGTTCGAG | -0.156
132 | AAATTCAC | 0.00682
133 | GATAAATA | 0.092
134 | GGCTAAAC | 0.108
135 | TGGTTGAA | -0.178
136 | CACCGAAG | 0.167
137 | ATGATCCC | 0.183
138 | AACGTCAC | -0.187
139 | GGGCGCAA | -0.0471
140 | GGATTATA | 0.154
141 | CGCAAGGC | 0.0765
142 | ATCCTACA | -0.167
143 | CGGAGCAC | 0.391
144 | ATCATGCG | 0.0437
145 | ACGGGGAG | 0.07
146 | CGTAACAG | 0.0692
147 | ATTCAAAG | -0.141
148 | CGCGGGTC | 0.224
149 | CAACGACA | -0.0546
150 | CCTTAGTA | -0.0386

Row | Sequence | PBM E-score
151 | AACTCCGC | 0.49
152 | CAGACCTA | -0.328
153 | CTCGAAAA | -0.153
154 | CAAAAACG | 0.052
155 | CGGGGGCA | -0.00606
156 | CAACCAAG | -0.174
157 | AGTAACAG | -0.0634
158 | GACGAATC | -0.0908
159 | CGCTCATA | -0.161
160 | AGATACCC | 0.055
161 | AAGCCCGG | 0.416
162 | GAACGATA | -0.091
163 | ACATGAGC | -0.145
164 | CAGACCCC | -0.0599
165 | ACCTCTGG | -0.135
166 | AAACCCTA | -0.111
167 | TAGAGAGA | -0.276
168 | CCCCAGGG | -0.211
169 | ACAAATCA | -0.161
170 | AGAGATGG | -0.036
171 | GTGATAAC | 0.0272
172 | GGATCACA | 0.118
